Recombinant human monoclonal antibodies (heavy:light variable regions). ELISA EC50 on the named antigen, from 10 µg/ml down; lower = stronger. No active / inactive call.
B1: C864 (protein)
chain 1: QVQLVQSGPEVKKPGTSVKVSCKAFQLSFSVSAVQWVRQARGQRLEWIGWIVVGSGNTNYAQKFQERVTITRDMSTSTVYMEVRSLRSEDTAVYYCAAPQCNRTTCYDAFDMWGQGTMVTVSS
chain 2: EIVLTQSPGTLSLSPGERATLSCRASQSVNSNYLAWYQQKPGQAPRLLIFGPSNRATGIPDRFSGSGSGTDFTLTISRLESEDFAVYYCQQYGSSPWTFGQGTKVEIK
B2: C1067 (protein)
chain 1: QVQLVQSGAEVKKPGASVKVSCKASRDTFTTHYIHWVRQAPGQGLEWMGIINPSGGSISYAQKFQGRVTMTRDTSTSTVYMELSSLRSEDTAVYYCARGGIVPHLSNWFDPWGQGTLVTVSS
chain 2: EIVLTQSPGTLSLSPGERATLSCRASQSVSSSYLAWYQQKPGQAPRLLIYGASSRATGIPDRFTGSGSGTDFTLTISRLEPEDFAVYYCQQYGRSSGFTFGPGTKVDIK
B3: C862 (protein)
chain 1: QVQLQESGPGLVKPSQTLSLTCTVSGASISSSEHYWSWIRQPPGKGLEWIGYISYSGGTYQNPSLQSRMTLSMDASKNQFSLKLSSVTAADTAVYFCARLNTMIVMINGVFDVWGQGTMVTVSS
chain 2: DIQMTQSPSSLSAFVGDRVTITCQASQDINKYVNWYQQKPGKAPKLLIYDASNLQTGVPSRFSGSGSGTHFTFTISSLQPEDFATYYCQEYDNLFSISFGQGTRLEIK
B4: C855 (protein)
chain 1: QVQLVESGGGVVQPGRSLRLSCAASGFAFSTYGMHWVRQTPGKGLAWVAAISYDGRNTYYGDSVKGRFTITRDNSKNTLYLQLNSLRDEDTALYYCARDATMITLVRGIMGPPFDHWGQGSLVTVSS
chain 2: not shown
B5: C856 (protein)
chain 1: QVQLVESGGGVVQPGRSLRLSCAASGFTFSSYGMHWVRQAPGKGLEWVAVISYDGSNKYYADSVKGRFTISRDNSKNTLYLQMSSLRAEDTAVYYCAKQIGEYCSGGSCYQGSLDYWGQGTLVTVSS
chain 2: not shown
B6: C863 (protein)
chain 1: EVQLLESGGGLVRPGGSLRLSCAASGFIFGSYAMTWVRQAPGKGLEWVSTISGGGTSTDYADSVKGHFTISRDNGKNTLYLQMNSLRAEDTAVYYCVKESDYYMASVNGMDVWGHGTTVTVSS
chain 2: EIVLTQSPGTLSLSPGERATLSCRARQGVSSTYLAWYQQKPGQAPRLLIYGASSRATGIPDRFSGSGSGADFTLTISRLEPEDFAVYYCQQYGTSPYTFGQGTKLEIK
B7: C1061 (protein)
chain 1: EVQLVESGGGLVQPGGSLRLSCAASGFTFSRYDMHWVRQGTGKGLEWVSAIGTSGDTYYPDSVKGRFTISRENAKNSLYLQMNSLRAGDTAVYYCARGGLQTTTWLFDYWGQGTLVTVSS
chain 2: DIQMTQSPSSLSASVGDRVTITCRASQSISRYLNWYQQKPGKAPKLLIYAASSLQSGVPSRFSGSGAGTDFTLTISSLQPEDFAIYYCQQSYSNPPITFGQGTRLEIK
B8: C1062 (protein)
chain 1: EVQLVESGGGLVQPGGSLRLSCAASGFTFSNYDMHWVRQTTGKGLEWVSAIGTAGDTYYPGSVKGRFTMSRENAKNSLYLQMNSLRAGDTAVYYCARGGLQTTTWLFDNWGQGTLVTVSS
chain 2: DIQMTQSPSSLSASVGDRVTITCRASQTISRYLNWYQQKPGKAPKLLIYAASSLQSGVPSRFSGSGSGTDFTLTISSLQPEDFATYYCQQSYTMPPITFGQGTRLEIK
B9: C869 (protein)
chain 1: QVQLVESGGGVVQPGTSLRLSCAASGFTFSSFGMNWVRQAPGKGLEWVAVIFFDGSKTYYADSVKGRFTISRDNSKNTLYLQMNSLRTEDTAVYYCAKGQLRLGEFDDYWGQGTLVTVSS
chain 2: DIQMTQSPSSLSASVGDRVTITCRASQDIRDDLNWYQHKPGKAPKLLIYTASSLQSGVPSRFSGSGSGTDFTLTISRLQPEDFASYYCLQDHNYPLTFGQGTKLEIK
B10: C859 (protein)
chain 1: QVQLVQSGAELKKPGASVRVSCKASGYTFTDYYIHWVRQAPGQGFEWMGWINPDSGGTNYPQNFQGRVTMTRGTSISTAYVELTRLRFDDTAVYYCARTSSPHSSSTGDLDYWGQGTLVTVS
chain 2: SYELTQSPSVSVAPGKTARITCGGRDIGSKSVHWYQQRPGQAPVLVISYDNDRPSGIPERFSGSNSGNTATLTISRVEAGDEADYYCQVWDGTGDHPGWVFGGGTRLTVL
B11: C866 (protein)
chain 1: EVQLVESGGGLVQPGRSLRLSCVASGFEFEDYGMHWVRQVPGKGLEWVSGISWNSASVGYADSVRGRFTISRDNAKNSLYLQMNSLRAEDTALYYCGKQINEWSHFLDYWGQGTLVTVSS
chain 2: DIQLTQSPSSVSASVGDRVTITCRASQGISNWLAWYQKKPGKAPKLLIYATSSLQSGVPSRFSGSGSETDFTLTIRSLQPEDFATYYCQQANSYPLTFGQGTKLEIK
B12: C1068 (protein)
chain 1: QVQLVESGGGVVQPGRSLRLSCAASGFTFSTFAMHWVRQAPGKGLEWVAVTSYDGSNKYYADSVKGRFTISRDNSKNTLYLQMNSLRAEDTAVYYCARGLLWFGESEYFQHWGQGTLVTVSS
chain 2: not shown
B13: C868 (protein)
chain 1: QVQLQESGPRLVKPSETLSLTCIVSGGSVSSNNFYWSWIRQPPGKRLEWIGYFYNSGSSKYNPSLKSRVTISGDTSKNQFSLKLSSVTAADTAVYYCARETFFYDRTGHYKSDGFDVWGQGTMVTVSS
chain 2: DIQMTQSPSTLSASVGDRVTISCRASQNISSWLAWYQQEAGKAPKLLIYKASSLESGVPSRFSGSGSGTEFTLTISSLQPGDFATYYCQQYNIYSYTFGQGTKLEIK
B14: C1065 (protein)
chain 1: EVQLVESGGGLIQPGGSLRLSCAASGFTVSRNYMSWVRQAPGKGLEWVSVIYSGGSTFYADSVKGRFTISRDNSKNTLYLQMNSLRAEDTAVYYCARGLPTGEGWNYFDYWGQGTLVTVSS
chain 2: QSALTQPASVSGSPGQSITISCTGTSSDIGGYHYVSWYQQHPGKAPKLMIYDVSNRPSGISNRFSGSKSGNTASLTISGLQAEDEADYYCSSYASSSVIFGGGTKLTVL
B15: C1066 (protein)
chain 1: EVQLVESGGGLVQPGRSLRLSCAASGFMFDDYAMHWVRQAPGKGLEWVSGINWSSADIGYVDSVKGRFTISRDNAKNSLYLQMNSLRTEDTAFYYCAKGWFGELLGGSDSWGQGTLVTVSS
chain 2: QLVLTQSSSASASLGSSVKLTCTLNSGHSSYIIAWHQQQPGKAPRYLMKLEGSGSYNKGSGVPDRFSGSSSGADRYLTISNLQFEDEADYYCATWDSNTQVFGGGTKLTVL
B16: C1060 (protein)
chain 1: EVQLVESGGDLVQPGGSLRLSCAASEIIVSRNYMNWVRQAPGKGLEWVSIIYSGGSTFYGDSVKGRFTISRDSSKNTLYLQMHGLRVEDTAIYYCARSYGDYYIDYWGQGTLVTVSS
chain 2: DIQMTQSPSSVSASVGDRVTITCRTSQSISTSLAWYQQKPGKAPKLLIYAASSLQRGVPSRFSGTGSGTDFTLTISSLQPEDFATYYCQQSSSSPPLFTFGPGTKVDIK
B17: C865 (protein)
chain 1: EVQLLESGGGLVQPGGSLRLSCVASRFIFSRYALSWVRQAPGKGLEWVSGISGSGHSTHYADSVTGRFTISRDNSKNTVYLQMSSLRAEDTAVYYCAKGPRSNYDYFESWGQGTLVTVSS
chain 2: DIQLTQSPSSLSASVGDRVTITCRASQGISSALAWYQQRPGKAPRLLIYDASSLDSGVPSRFSGSGSGTDFTLTISSLQSEDFATYYCQQFINNPLTFGGGTKVEIK
B18: C1063 (protein)
chain 1: EVQLVQSGAEVKKPGESLKISCKGYGNSFNNYWIAWVRQMPVKGLEWMGVINPGDSDTRYSPSFQGQVTISVDKSISTAYLQWSSLKASDTAMYYCARTWSPAAVAFFDSWGQGTLVTVS
chain 2: NFMLTQPHSVSESPGKTVTISCTRSSDSIGSNYVQWYQQRPGSSPTIVIYEDSQRPSGVPHRFSGSFDSSSNSASLTISGLKTEDEADYYCQSWDSGNLVFGGGTKLTVL
B19: C857 (protein)
chain 1: QVQLQESGPGLVKPSQTLSLTCTVSGGSISSGGYYWSWIRQHPGKGLEWIGYIYYSGSTYYNPSLESRVTISVDTSKNQFSLKLSSVTAADTAVYYCASGELSAFGELFPHDYWGQGTLVTVSS
chain 2: EIVLTQSPATLSLSPGERATLSCRASQSVSTYLAWYQQKPGQAPRLLIYDASNRATGIPARFSGSGSGTDFTLTISSLEPEDFAVYYCQQRSNWLFTFGPGTKVDIK
B20: C867 (protein)
chain 1: QVQLQESGPGLVKSSETLSLTCTVSSGSVRSGGYYWSWIRHHPGKGLEWIGYIFYTGITYYNPSLKSRVIVSVDPSKNQFSLNLTSVTAADTAVYYCASTPYTNGGAFHIWGQGTMVTVSS
chain 2: QSALTQPPSASGSPGQSVTISCTGTSSDVGGHNYVSWYQQFPGKAPKLIIYDVNKRPSGVPDRFSGSKSANTASLTVSGLQAEDEADYHCSSYAGSNNWVFGGGTKLTVL

target: SARS-CoV-2 Wuhan-Hu-1 spike receptor-binding domain; experiment: ELISA binding EC50; higher = weaker binding; ELISA of recombinant human antibody on coated antigen, from 10 µg/ml in fourfold dilutions; four-parameter fit.

Q: For B1, which “ELISA binding EC50” value is on record?
A: Its value is 1.89 ng/mL.

Q: Which “ELISA binding EC50” value does the source give for B2 here?
A: Its value is 2.93 ng/mL.

Q: How did the “ELISA binding EC50” value turn out when B3 was run?
A: Its value is 2.14 ng/mL.

Q: How did the “ELISA binding EC50” value turn out when B4 was run?
A: Its value is 2.73 ng/mL.

Q: With B5 as the binder, how does the “ELISA binding EC50” value read?
A: Its value is 2.65 ng/mL.

Q: How did the “ELISA binding EC50” value turn out when B6 was run?
A: Its value is 3.31 ng/mL.

Q: For B7, which “ELISA binding EC50” value is on record?
A: The value was 2.26 ng/mL.

Q: With B8 as the binder, how does the “ELISA binding EC50” value read?
A: The value was 2.61 ng/mL.

Q: B9 was tested. Which “ELISA binding EC50” value did it give?
A: The value was 3.14 ng/mL.

Q: For B10, which “ELISA binding EC50” value is on record?
A: The value was 2.75 ng/mL.

Q: With B11 as the binder, how does the “ELISA binding EC50” value read?
A: Its value is 2 ng/mL.

Q: With B12 as the binder, how does the “ELISA binding EC50” value read?
A: The value was 2.48 ng/mL.

Q: Which “ELISA binding EC50” value does the source give for B13 here?
A: The value was 3.39 ng/mL.

Q: How did the “ELISA binding EC50” value turn out when B14 was run?
A: Its value is 3.52 ng/mL.

Q: With B15 as the binder, how does the “ELISA binding EC50” value read?
A: The value was 3.01 ng/mL.

Q: With B16 as the binder, how does the “ELISA binding EC50” value read?
A: Its value is 2.67 ng/mL.

Q: For B17, which “ELISA binding EC50” value is on record?
A: Its value is 2.14 ng/mL.

Q: Which “ELISA binding EC50” value does the source give for B18 here?
A: The value was 3.04 ng/mL.

Q: Which “ELISA binding EC50” value does the source give for B19 here?
A: The value was 2.01 ng/mL.

Q: For B20, which “ELISA binding EC50” value is on record?
A: Its value is 2.71 ng/mL.

— the supplement of paper PMC8277577
